Test results taken from PubChem BioAssay AID504832 (National Center for Advancing Translational Sciences (NCATS), 2011).
The campaign covered roughly 310,000 compounds. About 18,000 (5.8%) were called active. Inconclusive means that the source gave no clear call. Such entries were picked first, then a sample of the others. Calls follow the shape of the dose curve; as a rule, active = well fitted inhibition curve with a large enough effect; inconclusive = small, poorly fitted or top-dose-only effect, or another doubt; inactive = no such curve, though single readings can be large or run the other way. Potencies of inconclusive entries are left out as doubtful fits.
Potency is read from the fitted curve at half-maximal effect; tags tell the direction and shape of the fitted curve.

Test: Primary qHTS for delayed death inhibitors of the malarial parasite plastid, 48 hour incubation
Settings: P. falciparum luciferase growth in erythrocytes; series mostly up to 28.7 µM
Procedure, shortened: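 Luciferase-expressing P. falciparum in infected erythrocytes (2% hematocrit, 0.1% parasitemia final) in RPMI 1640/0.5% Albumax were exposed to compound for 48 hours at 37 C, 5% CO2; growth read as luminescence.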
In the case of COCCNCC(=O)Nc1ccccc1Sc1ccccc1, the Potency is reported as “inactive”.
With O=C(COC(=O)c1ccc(O)cc1O)N=c1sccn1Cc1ccccc1Cl the Potency was inconclusive [inhibitor, partial curve].
With CC(NC(=O)CCSc1nc(-c2ccc3c(c2)OCO3)cc(C(F)(F)F)n1)c1ccccc1 (stereo not given) the Potency was inconclusive [inhibitor, single point].
In the case of COc1ccccc1-n1c(/C=C/c2ccc(O)cc2)nc2ccccc2c1=O, the Potency is reported as active: 13.1 µM.
With CCN(Cc1ccccc1)C(=O)c1nn(-c2ccc(OC)cc2)c(=O)c2c1c1ccccc1n2C the Potency was inconclusive [inhibitor, partial curve].
With O=C(N/N=C/c1cn(-c2cccs2)nc1-c1ccccc1)c1ccccc1Br the Potency was “inactive”.
For CCOC(=O)c1ccc(N=c2sc(C(=O)OC)cc(=O)n2Cc2ccco2)cc1, the Potency was inconclusive [inhibitor, single point].
In the case of Cn1c(=O)c2c(ncn2CC(=O)Nc2nc(-c3ccccc3Cl)cs2)n(C)c1=O, the Potency is reported as “inactive”.
For Cc1ccnc(NC(=O)CNC(=O)c2ccc3c(c2)OCO3)c1, the Potency was “inactive”.
In the case of Cc1ccc(CNC(=O)c2ccc(N(C)S(=O)(=O)c3ccccc3)cc2)cc1, the Potency is reported as inconclusive [inhibitor, single point].
In the case of CCN(CC(=O)Nc1ccc(NC(C)=O)cc1)C(=O)c1ccc2c(c1)S(=O)(=O)N=C1CCCCCN12, the Potency is reported as “inactive”.
For Cc1cnc(CN(C)C(=O)c2ccc3oc(Cc4ccc(Cl)cc4)nc3c2)[nH]1, the Potency was inconclusive [inhibitor, partial curve, poor fit].
For COc1cc(C(c2c(C)[nH][nH]c2=O)c2c(C)[nH][nH]c2=O)cc(Cl)c1O, the Potency was inconclusive [inhibitor, full curve, poor fit].
With O=S(=O)(Nc1cccc(-c2cn3cccnc3n2)c1)c1ccccc1 the Potency was inconclusive [inhibitor, single point].
With CCN1CCN(C(=O)c2cnn3c(C(F)F)cc(-c4ccc(C)cc4)nc23)CC1 the Potency was inconclusive [inhibitor, single point].
For COc1ccccc1N1CCN(CCCCNC(=O)c2ccc(-c3ccc(C(C)=O)cc3)cc2)CC1, the Potency was inconclusive [inhibitor, full curve].
In the case of COc1cccc(NC(=O)c2oc3ccccc3c2NC(=O)C2CC2)c1, the Potency is reported as inconclusive [inhibitor, single point].
For Cn1c(CCN2CCCCC2)nc2cc(NC(=O)COc3ccc(Cl)cc3)ccc21, the Potency was inconclusive [inhibitor, full curve].
For COC(=O)CN(C)C(=O)c1ccc2nc(Cc3cccc(Cl)c3)oc2c1, the Potency was “inactive”.
In the case of CCN(CCNC(=O)C1CCN(Cc2nc(-c3cccc(Cl)c3)oc2C)CC1)c1ccccc1, the Potency is reported as inconclusive [inhibitor, single point].
In the case of COc1ccc(NCC(=O)N/N=C/c2c(C)nn(Cc3ccccc3)c2Cl)cc1, the Potency is reported as inconclusive [inhibitor, single point].
In the case of CN(C)CCCN(C(=O)c1ccc(S(=O)(=O)N(C)C2CCCCC2)cc1)c1nc2ccc(F)cc2s1, the Potency is reported as inconclusive [inhibitor, single point].
With Cc1ccc(Oc2ccc(C=O)cn2)cc1 the Potency was “inactive”.
For O=C(NCc1ccc2c(c1)OCO2)C1CCCN1C(=O)Nc1ccccc1 (stereo not given), the Potency was “inactive”.
For COc1ccc(CNC(=O)C2CCN(S(=O)(=O)c3ccc(SC)cc3)CC2)cc1, the Potency was inconclusive [inhibitor, partial curve, poor fit].
With COc1ccccc1NC(=O)Nc1ccccc1Br the Potency was inconclusive [inhibitor, partial curve, poor fit].
In the case of NC(=O)CCCCC1CCSS1 (stereo not given), the Potency is reported as inconclusive [inhibitor, single point].
In the case of O=C(Nc1nnc(S(=O)(=O)Nc2ccccc2)s1)C1CCCCC1, the Potency is reported as “inactive”.
With CN(CC(=O)Nc1ccccc1C(=O)NC1CC1)Cc1ccccc1F the Potency was inconclusive [inhibitor, single point].
With COc1cccc(/C=C2\SC(=O)N(CC(=O)NC3CCS(=O)(=O)C3)C2=O)c1 (stereo not given) the Potency was inconclusive [inhibitor, partial curve, poor fit].
For COc1ccccc1NC(=S)NC(C)C(c1cccs1)N1CCOCC1 (stereo not given), the Potency was inconclusive [inhibitor, single point].
In the case of Cc1cc(C)n(-c2nncc(-c3ccccc3)n2)n1, the Potency is reported as inconclusive [inhibitor, single point].
For CC(C)Oc1nc(-c2ccccc2O)nc2ccccc12, the Potency was “inactive”.
With Cc1ccc(CC(=O)O/N=C(\N)c2ccncc2)cc1 the Potency was “inactive”.
For Cc1ccc(S(=O)(=O)N(C)C)cc1NC(=O)CN1C(=O)NC2(CCCCCCC2)C1=O, the Potency was “inactive”.
In the case of CN(C)S(=O)(=O)c1cccc(NC(=S)NNC(=O)c2cc3ccccc3cc2O)c1, the Potency is reported as inconclusive [inhibitor, single point].
For O=C1N(Cc2cccnc2)C[C@@H]2C[C@@H](c3cccc(Oc4ccccc4)c3)N3CCC[C@@]123, the Potency was inconclusive [inhibitor, single point].
For CCOC(=O)c1c(NC(=O)CSc2ncccn2)sc2c1CC(C)(C)NC2(C)C, the Potency was active: 14.7 µM.
In the case of CCOC(=O)c1ccc(NC(=O)CSc2nnc(COc3ccccc3OC)n2C)cc1, the Potency is reported as inconclusive [inhibitor, partial curve].
With CCOC(=O)C1CCCN(C2CCN(Cc3nc(Cc4ccccc4)no3)CC2)C1 (stereo not given) the Potency was inconclusive [inhibitor, partial curve].
For CCc1sc(N(C(=O)Cc2ccccc2)c2ccccc2F)nc1-c1ccc(C)cc1, the Potency was inconclusive [inhibitor, partial curve].
With CC1CCN(CCCN2C(=O)C3C(C(=O)Nc4cccc(Cl)c4)C4C=CC3(O4)C2C(=O)NC2CCCCC2)CC1 (stereo not given) the Potency was inconclusive [inhibitor, partial curve].
For CC(C)n1c(-c2cccs2)nc2ccccc21, the Potency was inconclusive [inhibitor, single point].
With O=C(Nc1ccc2nc(-c3ccccn3)c(-c3ccccn3)nc2c1)N1CCOCC1 the Potency was “inactive”.
In the case of CCOC(=O)N1CCN(C(=O)CCN2C(=O)COc3ccccc32)CC1, the Potency is reported as “inactive”.
For CC(C)(C)c1cc(Cl)ccc1OCCOCCN1CCCC1, the Potency was inconclusive [inhibitor, single point].
For CCOc1ccc(C(C)NC(=S)NC2CCCCC2)cc1OCC (stereo not given), the Potency was active: 0.0828 µM.
For CCOC(=O)C1(Cc2cccc(Cl)c2)CCCN(C(=O)c2c(CC)noc2C)C1 (stereo not given), the Potency was inconclusive [inhibitor, single point].
With O=C1c2sc3nc4c(c(=O)n3c2C(=O)N1c1ccccc1)CCC4 the Potency was inconclusive [inhibitor, full curve, poor fit].
With CCOc1ccc(C(=O)NCC(=O)N2CCCCCCC2)cc1 the Potency was inconclusive [inhibitor, single point].
With O=C(CN1CCN(S(=O)(=O)c2ccc(Br)cc2)CC1)N/N=C/c1ccc(Cl)c([N+](=O)[O-])c1 the Potency was “inactive”.
For CC1(C)CC(NC2C3CC4CC(C3)CC2C4)CC(C)(C)N1 (stereo not given), the Potency was inconclusive [inhibitor, partial curve].
In the case of COC(=O)CCC(=O)Nc1cccc(Cl)c1, the Potency is reported as inconclusive [inhibitor, partial curve, poor fit].
For CCC(=O)NC(c1ccco1)c1cc(Cl)c2cccnc2c1O (stereo not given), the Potency was inconclusive [inhibitor, full curve].
In the case of CCOc1ccccc1NC(=O)C(=O)N/N=C/c1ccc([N+](=O)[O-])cc1, the Potency is reported as “inactive”.
In the case of Cc1cc(C)n2nc(C(=O)N3CCOCC3)nc2n1, the Potency is reported as “inactive”.
In the case of CCCCn1c(N)c(N(CCOC)C(=O)C(C)Oc2ccc(Cl)cc2)c(=O)[nH]c1=O (stereo not given), the Potency is reported as inconclusive [inhibitor, partial curve, poor fit].
For CCOC(=O)CC1C(=O)NCCN1C(=O)NC1CCCCC1 (stereo not given), the Potency was “inactive”.
With CCCCc1cc(=O)oc2c(C)c(OCC(=O)NCCN3CCOCC3)ccc12 the Potency was inconclusive [inhibitor, single point].
With CCc1nc(Nc2ccc(F)cc2)c2oc3ccccc3c2n1 the Potency was inconclusive [inhibitor, partial curve].
In the case of O=C(Nc1ccc(Cl)cc1)Nc1ccc2c(c1)N1CCN=C1S2, the Potency is reported as active: 0.738 µM.
For CCCCOc1ccc(C(=O)C(CN2CCOCC2)c2ccccc2)cc1 (stereo not given), the Potency was inconclusive [inhibitor, single point].
With CCCCOc1ccc(C(C)NC(=O)C2CCCN(S(=O)(=O)CCC)C2)cc1 (stereo not given) the Potency was “inactive”.
With O=C(Cn1cc([N+](=O)[O-])cn1)NC1CCCCCC1 the Potency was “inactive”.
For Cc1ccc(N2C(=O)CC(Sc3cccs3)C2=O)cc1 (stereo not given), the Potency was “inactive”.
For O=C(Nc1sc2c(c1C(=O)NCc1ccco1)CCCC2)c1ccc2c(c1)OCO2, the Potency was inconclusive [inhibitor, single point].
In the case of CCNC(=O)COC(=O)/C=C/c1c(C)nn(Cc2cccc(OC)c2)c1Cl, the Potency is reported as inconclusive [inhibitor, single point].
With COCC(C)n1c(SCC(=O)Nc2nccs2)nc2ccccc2c1=O (stereo not given) the Potency was “inactive”.
With O=C(OCC(=O)N1CCCC1)c1cc(Br)ccc1Cl the Potency was inconclusive [inhibitor, single point].
With CC(C)c1ccc(S(=O)(=O)/N=C2/C=CC(=O)c3ccccc32)cc1 the Potency was active: 8.28 µM.
